Test results reported in PubChem BioAssay AID360 (National Center for Advancing Translational Sciences (NCATS), 2006).
In all, about 48,000 compounds went through this assay and about 550 (1.1%) were called active. Inconclusive results (about 4%) are left out. Rule as the data show it: active = potency below about 15 µM; inconclusive = mostly about 16 µM to 33 µM; inactive = weaker than that. The list shows a part of the results.

Biological target: Lysosomal acid glucosylceramidase (Homo sapiens) (UniProt P04062)
Sequence of UniProt P04062 (P04062 whole entry, looked up): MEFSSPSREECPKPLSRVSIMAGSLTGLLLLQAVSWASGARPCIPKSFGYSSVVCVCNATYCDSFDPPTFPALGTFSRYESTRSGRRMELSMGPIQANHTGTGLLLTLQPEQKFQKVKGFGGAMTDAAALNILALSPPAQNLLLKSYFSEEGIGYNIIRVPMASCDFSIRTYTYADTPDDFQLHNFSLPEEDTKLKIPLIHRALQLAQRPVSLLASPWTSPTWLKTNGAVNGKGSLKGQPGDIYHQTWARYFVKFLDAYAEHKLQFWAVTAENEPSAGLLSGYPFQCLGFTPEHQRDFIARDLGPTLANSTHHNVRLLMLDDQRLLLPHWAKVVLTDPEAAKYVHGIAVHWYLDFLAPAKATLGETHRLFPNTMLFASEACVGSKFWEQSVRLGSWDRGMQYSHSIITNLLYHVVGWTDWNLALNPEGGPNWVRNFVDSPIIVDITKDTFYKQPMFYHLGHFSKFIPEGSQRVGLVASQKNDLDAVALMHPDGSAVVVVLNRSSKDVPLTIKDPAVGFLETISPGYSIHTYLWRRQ
Assay: Glucocerebrosidase;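 also: the screen sought inhibitors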
Settings: purified enzyme, resorufin glucoside fluorescence (screen aimed at inhibitors), 20 min; series mostly up to 77 µM
Summary of the method: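 Normal human glucocerebrosidase (0.2 nM final) was assayed with resorufin β-D-glucopyranoside (30 uM final) in 50mM citric acid/KH2PO4, 10mM sodium taurocholate, 0.01% tween-20, pH 5.9. Compounds were titrated; fluorescence (Ex 548, Em 600) read after 20 min at RT.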
Potency is read from the fitted curve at half-maximal effect.

Potency, inactive:
CN(Cc1ccccc1)Cc1nc2c(c(=O)n(C)c(=O)n2C)n1CCCc1ccccc1 > 76.9 µM
Cc1nn(Cc2ccc(Cl)cc2)c(C)c1NC(=O)c1noc2c1CCCCC2 > 76.9 µM
CC(=O)c1nc2ccccc2n1S(=O)(=O)c1ccc(C)cc1 > 76.9 µM
COC(=O)CSc1nc2cc3c(cc2cc1C#N)OCO3 > 76.9 µM
O=C(NC1CCCCC1)C1CC(O)CN1C(=O)OCc1ccccc1 (stereo unspecified) > 76.9 µM
O=C(Nc1ccc(N2CCOCC2)cc1)c1cccc(S(=O)(=O)N2CCCC2)c1 > 76.9 µM
Cc1ccc2c(c1)nnn2C1CCN(S(=O)(=O)c2cccc(S(=O)(=O)N(C)C)c2)CC1 > 76.9 µM
Cc1ccc(C(C)NC(=O)c2cc(C)oc2C)cc1 (stereo unspecified) > 76.9 µM
COc1ccc(S(=O)(=O)N2CCOCC2)c(Cl)c1Cl > 76.9 µM
O=C(NCCN1C(=O)CCC1=O)c1ccncc1 > 76.9 µM
CCn1c(SCC(=O)Nc2nonc2C)nnc1-c1ccco1 > 76.9 µM
N#Cc1c(-c2cccs2)cc(-c2ccccn2)nc1N > 76.9 µM
COC1(OC)N=C(N)C2(C#N)C(c3ccc4c(c3)OCO4)C12C#N (stereo unspecified) > 76.9 µM
Cc1c(NC(=O)c2cc(C(C)C)on2)c(=O)n(-c2ccccc2)n1C > 76.9 µM
Cc1cc(=O)oc2cc(OC(C)C(=O)N3CCCc4ccccc43)ccc12 (stereo unspecified) > 76.9 µM
CCOC(=O)c1sc(NC(=O)CSc2n[nH]c(-c3ccccc3)n2)c(C#N)c1C
CCc1c(C(=O)NCc2ccc3c(c2)OCO3)[nH]c(C)c1C(C)=O > 76.9 µM
Cc1cc2ccccc2n2c(SCC(=O)N3CCN(C(=O)c4ccco4)CC3)nnc12 > 76.9 µM
Cc1nc2ccccc2nc1OCC(=O)Nc1cc(C(F)(F)F)ccc1N1CCOCC1 > 76.9 µM
O=C1c2ccccc2C(=O)N1Cc1nc2ccccc2c(=O)n1CCN1CCOCC1 > 76.9 µM
COC(=O)C1CCN(C(=O)NC(C)(C)C)CC1 > 76.9 µM
O=C(O)c1[nH]c2ccc(Cl)cc2c1CC(=O)N1CCN(c2ccccc2)CC1 > 76.9 µM
O=C(Nc1ccc2nc(-c3cccs3)[nH]c2c1)c1cccs1
O=C(c1cc2nc(-c3ccccc3)cc(C(F)(F)F)n2n1)N1CCOCC1 > 76.9 µM
Cc1sc2nc3n(c(=O)c2c1C)CCCS3 > 76.9 µM
COc1ccc(S(=O)(=O)N(CCCN2CCCC2=O)Cc2cc3c(C)ccc(C)c3[nH]c2=O)cc1 > 76.9 µM
O=c1cc(CSc2nnc(COc3ccccc3Cl)o2)nc2sccn12 > 76.9 µM
C=CCn1c(COc2ccc(Cl)cc2)nnc1SCc1ccc(C#N)cc1 > 76.9 µM
COC(=O)c1cc2oc(C)cc2n1CC(=O)Nc1ccc(OC)c(OC)c1OC
O=C(O)CS(=O)(=O)c1ccc(Oc2ccc(S(=O)(=O)CC(=O)O)cc2)cc1 > 76.9 µM
Cc1cc(Cl)ccc1N1C(=O)CC(SCCC(=O)O)C1=O (stereo unspecified) > 76.9 µM
CCc1ccc(NC(=O)Nc2cccs2)cc1 > 76.9 µM
COc1ccc(-c2nn(C)c(=O)c3ccccc23)cc1CNC(=O)c1ccco1 > 76.9 µM
C[C@@H]1C[C@H](O)c2cc(Cl)ccc2N1 > 76.9 µM
Cc1ccc(CN2CCN(CC(=O)NCc3ccc(Cl)cc3)C2=O)cc1 > 76.9 µM
CCS(=O)(=O)N1CCC(C(=O)OCC(=O)c2ccc(Br)cc2)CC1 > 76.9 µM
FC(F)(F)C12CC(c3ccccc3)=NCCN1CCN2 (stereo unspecified) > 76.9 µM
CCOc1ccccc1C(=O)N(CCC(=O)OC)c1ccccn1 > 76.9 µM
O=C(C1CCCO1)N1CCC(O)(c2ccccc2)CC1 (stereo unspecified) > 76.9 µM
COc1ccc2c(c1OC)C(=O)N(c1cccc(C(F)(F)F)c1)C2 > 76.9 µM
CC1CC(C)(C)NC(=S)S1 (stereo unspecified) > 76.9 µM
N#CC(C(=O)NCCc1ccccc1)c1nc2ccccc2nc1N1CCCCC1 (stereo unspecified) > 76.9 µM
Cc1ccc(C2/C(=C(\O)c3c(C)nc4ccccn34)C(=O)C(=O)N2CCCN(C)C)o1 (stereo unspecified) > 76.9 µM
CCOC(=O)N1CCC(NC(=O)c2ccc3c(c2)N(C)CCS3)CC1 > 76.9 µM
O=C(C1CC(c2ccc(F)cc2)=NO1)N1CCCCC1 (stereo unspecified) > 76.9 µM
CNS(=O)(=O)c1cccc(C(=O)OCc2cc(Cl)cc3c2OCOC3)c1 > 76.9 µM
COc1ccc(-n2nc3cc(C)c(NC(=O)C(C)C)cc3n2)cc1 > 76.9 µM
CCc1nc(SC)[nH]c(=O)c1C > 76.9 µM
c1ccc(COc2ccc(OCCn3cncn3)cc2)cc1 > 76.9 µM
CC1CCN(C(=O)c2ccc3c(c2)OCCO3)CC1 > 76.9 µM
CCn1nc(CC(=O)Nc2nnc(CC(=O)N3CCCC3)s2)c2ccccc2c1=O > 76.9 µM
O=C(C1CCN(S(=O)(=O)Cc2ccccc2)CC1)N1CCN(c2ncccn2)CC1 > 76.9 µM
CCOc1ccc2[nH]c(=O)c(CN(CCO)C(=O)c3ccc(F)cc3)cc2c1 > 76.9 µM
Cn1c(=O)n(CC(=O)N2CCN(c3nnc(-c4ccccc4)c4ccccc34)CC2)c2ccccc21 > 76.9 µM
Cc1ccc(-c2nnc3ccc(SCC(=O)NCc4ccco4)nn23)cc1 > 76.9 µM
COc1cccc(-n2nnc3c(=O)n(Cc4cccc(F)c4)cnc32)c1 > 76.9 µM
CC1(C)CC(=O)C2=C(C1)NCN(Cc1ccc3c(c1)OCO3)C2 > 76.9 µM
Cc1c(C)c2cc(Cl)c(OCc3nn[nH]n3)cc2oc1=O > 76.9 µM
CCCc1cc(=O)oc2cc(OCC(=O)N(C)C)c(Cl)cc12 > 76.9 µM
CC1CCCCC1NC(=O)C1Cc2ccccc2CN1S(C)(=O)=O (stereo unspecified) > 76.9 µM
O=C(NCc1ccccn1)c1ccc(COc2ccc(Cl)cc2)o1 > 76.9 µM
CCOP(=O)(c1ccc(N(C)C)cc1)C(O)c1ccccc1OC (stereo unspecified) > 76.9 µM
CN1CCN(C(=O)c2cnn3c(C(F)(F)F)cc(-c4ccc5c(c4)OCO5)nc23)CC1 > 76.9 µM
CN(C)CCCNC(=O)Cc1ccc(Br)cc1 > 76.9 µM
COc1ccc(OC)c(C2=NOC(C(=O)NCCN3CCOCC3)C2)c1 (stereo unspecified) > 76.9 µM
O=C(C1CC1)N1CCc2cc(Br)cc(S(=O)(=O)NCC3COc4ccccc4O3)c21 (stereo unspecified) > 76.9 µM
O=C(O)c1cccc(-n2nnnc2SCc2ccccn2)c1 > 76.9 µM
Cc1cccc(N(CC(N)=O)S(C)(=O)=O)c1C > 76.9 µM
CCc1nnc(SCc2ccc(CSc3nnc(CC)n3N)cc2)n1N > 76.9 µM
COc1ccc(Cl)c(Cn2c(NCc3ccco3)nc3c2c(=O)n(C)c(=O)n3C)c1 > 76.9 µM
Cc1cc(Br)ccc1SCC(=O)OCC(=O)N1CCN(C(=O)c2ccco2)CC1 > 76.9 µM
O=C(CN(CC1CCCO1)C(=O)CCC(=O)Nc1nccs1)NCC1CCCO1 (stereo unspecified) > 76.9 µM
NC(=O)c1cc(-c2ccccc2)sc1NC(=O)Cc1ccc(S(=O)(=O)N2CCOCC2)s1 > 76.9 µM
COC(=O)CSc1nc2sc(C)c(C)c2c(=O)n1C > 76.9 µM
CC(=O)N1SC(N)=NC1c1ccccc1 (stereo unspecified) > 76.9 µM
Cc1cc(C)nc(Sc2ccc3nnnn3n2)n1 > 76.9 µM
O=C(c1ccc(N2CCCC2=O)cc1)N1CCOCC1 > 76.9 µM
CC1CCCCC1NC(=O)CSc1nc2ccccc2c(=O)n1Cc1ccco1 (stereo unspecified) > 76.9 µM
COc1ccc(N2C(=O)C3CCCN3C2c2ccccc2)cc1Cl (stereo unspecified) > 76.9 µM
CCOC(=O)c1cnc(-n2nc(C)cc2C)nc1-n1nc(C)cc1C > 76.9 µM
CCOCCc1nnc(NC(=O)COC)s1 > 76.9 µM
CC1CCCN(CCCNC(=O)CCn2nc(-c3ccccc3)ccc2=O)C1 (stereo unspecified) > 76.9 µM
Cc1cc(NC(=O)CCC(=O)N(C2CC2)C2(C(=O)NC3CCCC3)CCC(C)CC2)no1 (stereo unspecified) > 76.9 µM
COc1ccc2oc(C(=O)OCC(=O)c3ccc4c(c3)OCCO4)c(C)c2c1 > 76.9 µM
CC(C)OC(=O)NCCOC(=O)Nc1cccc(Cl)c1 > 76.9 µM
O=C(c1cc2nc(C3CC3)cc(C(F)F)n2n1)N1CCOCC1 > 76.9 µM
COc1ccc(-n2c(=O)cc(N3CCOCC3)[nH]c2=O)cc1 > 76.9 µM
CC1(C)CC(=O)C2=C(C1)Oc1ncn(CCCO)c(=N)c1C2c1ccccc1 (stereo unspecified)
CCCn1c(SCC(=O)N2CCN(c3ccccc3)CC2)nc2ccccc2c1=O > 76.9 µM
CCc1nc(-c2ccccc2O)n(-c2ccccc2)n1 > 76.9 µM
CCOC(=O)Nc1ccc(S(=O)(=O)NCc2ccccc2)cc1 > 76.9 µM
